Reference: PubChem BioAssay AID485294 (National Center for Advancing Translational Sciences (NCATS), 2010)
The campaign covered roughly 370,000 compounds. About 150 (0.041%) were called active. The shares of active, inactive and inconclusive entries below differ from those in the screen. Calls come from the whole dose curve; as a rule, active = well fitted inhibition curve with a large enough effect; inconclusive = small, poorly fitted or top-dose-only effect; inactive = flat fitted curve, though single readings scatter. No potency is given beside an inconclusive call; the fits are too rough.

target: Beta-lactamase (Escherichia coli (strain K12)) (UniProt P00811); experiment: qHTS Inhibitors of AmpC Beta-Lactamase (assay with detergent); settings: AmpC hydrolysis of nitrocefin, absorbance 480 nm, 0.01% Triton; activity change, negative = inhibition: at 114 µM (top of the series); note: nearly all actives have a fitted effect of over 25% in size;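 for activity change, negative = inhibition: 0% = no-compound wells and -100% = no-enzyme wells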
UniProt P00811, sequence (P00811 whole entry, looked up): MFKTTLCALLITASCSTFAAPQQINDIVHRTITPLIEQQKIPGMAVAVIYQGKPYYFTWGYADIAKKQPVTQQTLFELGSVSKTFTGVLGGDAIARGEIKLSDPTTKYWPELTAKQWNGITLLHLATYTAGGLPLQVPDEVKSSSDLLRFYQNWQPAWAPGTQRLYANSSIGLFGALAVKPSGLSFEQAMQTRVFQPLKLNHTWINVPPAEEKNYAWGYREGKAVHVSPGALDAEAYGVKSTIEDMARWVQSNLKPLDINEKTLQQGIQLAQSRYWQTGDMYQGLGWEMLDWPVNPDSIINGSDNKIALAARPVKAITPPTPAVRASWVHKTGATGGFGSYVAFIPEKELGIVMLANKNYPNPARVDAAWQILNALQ
Procedure, shortened: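 20 mM phosphate pH 7.0 + 0.01% (detergent screen) or 0.0001% Triton X-100; 5.3 nM AmpC reagent; cpd preinc 15 min RT; nitrocefin (800 uM stock) to start; A480 q20 s × 4 min; Activity was normalised to no-enzyme and no-compound control wells.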
Potency is the fitted concentration of half-maximal effect; tags give direction and shape of the fitted curve.

| SMILES | Potency | activity change, negative = inhibition |
| --- | --- | --- |
| O=C(NCc1ccccc1)NC1(C(=O)Nc2ccc3c(c2)OCCO3)CCCCC1 | inconclusive [inhibitor, partial curve, poor fit] | – |
| CC1=C(C(=O)N2CCN(c3ccc(Cl)cc3)CC2)C2(CCC(C)CC2)OC1=O (stereo not given) | inconclusive [inhibitor, partial curve, poor fit] | – |
| COc1ncnc2c1cnn2-c1ccccc1 | – | inactive: -2.2% |
| CCCc1nc2ccccc2c(=O)n1CCc1ccccc1 | – | inactive: -20.1% |
| NC(=O)NC(=O)COC(=O)CN1C(=O)C2CCCCC2C1=O (stereo not given) | inconclusive [inhibitor, partial curve, poor fit] | – |
| COc1cc2c(cc1OC)C(C)N(C(=O)c1ccc(C)o1)CC2 (stereo not given) | inconclusive [inhibitor, full curve, poor fit] | – |
| O=C(O)c1ccc(NC(=O)c2ccco2)c(NC(=O)c2ccco2)c1 | inconclusive [inhibitor, full curve] | – |
| Cc1cnc(NC(=O)COc2ccccc2)s1 | – | inactive: -15.9% |
| Cc1cc2cc(CCNC(=O)CCc3ccccc3)c(=O)[nH]c2cc1C | inconclusive [inhibitor, full curve, poor fit] | – |
| CCN(CC)c1ccc(S(=O)(=O)N(CC)CC)cc1NC(=O)c1cccnc1 | inconclusive [inhibitor, single point] | – |
| Cc1nn(C)c(C(=O)NNC(=S)Nc2ccc(F)cc2)c1[N+](=O)[O-] | inconclusive [inhibitor, partial curve, poor fit] | – |
| COC(=O)c1cc(S(=O)(=O)N2CCCCC2)ccc1N1CCOCC1 | inconclusive [inhibitor, full curve, poor fit] | – |
| Cc1cccc(C(=O)Nc2ccc(S(=O)(=O)Nc3nc(C)cc(C)n3)cc2)c1 | inconclusive [inhibitor, partial curve] | – |
| COc1ccc(NC(=S)NC(C)C(c2ccccc2)N2CCOCC2)cc1 (stereo not given) | inconclusive [inhibitor, full curve] | – |
| COc1cc2c(cc1OC)C(C(=O)NCCN(C)C)C(c1cccs1)N(C)C2=O (stereo not given) | inconclusive [inhibitor, single point] | – |
| CCc1ccccc1NC(=O)C1CCCN(c2ncccn2)C1 (stereo not given) | – | inactive: -8.51% |
| COc1ccccc1S(=O)(=O)Cc1ccc(C(=O)N2CCN(c3ccccc3)CC2)o1 | – | inactive: -0.968% |
| COCCCNS(=O)(=O)c1ccc(C)cc1 | – | inactive: -1.56% |
| NC(=O)c1c(-c2ccccc2)oc2ccc(O)cc12 | – | inactive: 2.13% |
| COc1cc(-c2noc(-c3ccc(NC4CCCC4)c([N+](=O)[O-])c3)n2)cc(OC)c1OC | – | inactive: 19.3% |
| Cc1ccc(-c2noc(CN(C(=O)CCCCCN3C(=O)c4ccccc4C3=O)C(C)C)n2)cc1 | inconclusive [inhibitor, full curve, poor fit] | – |
| COc1ccc(C(C(=O)NCC2CCCO2)N(C(=O)c2snc(C(N)=O)c2N)c2ccccc2)cc1OC (stereo not given) | – | inactive: -12.6% |
| COc1ccc(C2C(C(=O)Nc3cccnc3)=C(C)Nc3nc(SCc4ccccc4)nn32)cc1 (stereo not given) | – | inactive: -2% |

| SMILES | Potency | activity change, negative = inhibition |
| --- | --- | --- |
| CCOCCCNC(=O)c1ccc(Cn2c(=O)c3cccn3c3cccnc32)cc1 | – | inactive: 17% |
| CC(O)(CS(=O)(=O)c1ccc(F)cc1)C(=O)Nc1ccc(C#N)c(C(F)(F)F)c1 (stereo not given) | inconclusive [inhibitor, single point] | – |
| CCOC(=O)N1CCN(c2ncc3c(n2)CC(c2ccc(Cl)cc2)CC3=O)CC1 (stereo not given) | – | inactive: 1.84% |
| COc1ccc(C)cc1Nc1cc(C)nc2nc(C)nn12 | inconclusive [inhibitor, full curve, poor fit] | – |
| Cc1ccc2nc(-c3ccc(NC(=O)COc4ccccc4C(C)(C)C)cc3)sc2c1 | – | inactive: 18.1% |
| COc1ccc2cc(CN(C(=O)Nc3ccccc3OC)C3CCCC3)c(=O)[nH]c2c1 | – | inactive: -11.9% |
| N#Cc1c2c(c(N3CCN(c4ccccn4)CC3)n3c1nc1ccccc13)CCC2 | inconclusive [inhibitor, full curve] | – |
| C=CCc1cccc2cc(-c3nc4ccc(C(=O)O)cc4[nH]3)c(=O)oc12 | – | inactive: 12.8% |
| C=CCc1cccc2cc(C(=O)Nc3ccc(S(=O)(=O)Nc4nnc(CC)s4)cc3)c(=O)oc12 | inconclusive [inhibitor, partial curve] | – |
| COc1cccc(OC)c1C1=CC(=O)C[C@H](c2ccc3c(c2)OCO3)C1 | – | inactive: -4.35% |
| O=C(Nc1ccc2c(c1)OCCO2)C1CCC1 | inconclusive [inhibitor, full curve, poor fit] | – |
| COc1ccc(C(c2sc3nc(C)nn3c2O)N2CCCCC2)cc1 (stereo not given) | inconclusive [inhibitor, full curve] | – |
| CCc1nc(N2CCCC2)c(C#N)c2c1CCCC2 | inconclusive [inhibitor, full curve] | – |
| O=S(=O)(c1ccc2c(c1)OCCO2)N1CCN(c2nc(-c3cccnc3)nc3ccccc23)CC1 | – | inactive: -4.07% |
| CC(=O)Nc1ccc(S(=O)(=O)N2CCCC2C(=O)Nc2ccc(F)cc2)cc1 (stereo not given) | inconclusive [inhibitor, full curve, poor fit] | – |
| CCOC(=O)c1c(C)[nH]c(C(=O)COC(=O)C2(C)CC2(Cl)Cl)c1C (stereo not given) | inconclusive [inhibitor, single point] | – |
| Cc1ccc(O)c(-c2cc(C(=O)NCc3ccc4c(c3)OCO4)[nH]n2)c1 | inconclusive [inhibitor, partial curve, poor fit] | – |
| COC(=O)CCCN1C(=O)c2cccc3cccc(c23)C1=O | – | inactive: -1.52% |
| CCn1cc(C(=O)NCCC(=O)NCCCO)c(=O)c2cc3c(cc21)OCO3 | inconclusive [inhibitor, full curve, poor fit] | – |
| CN(CC(=O)Nc1ccc(F)cc1)C(=O)Cn1cnc2ccc(Cl)cc2c1=O | inconclusive [inhibitor, full curve, poor fit] | – |
| CCOC(=O)C1(C)NC(c2cccs2)C2C(=O)N(c3ccccc3)C(=O)C21 (stereo not given) | inconclusive [inhibitor, single point] | – |
| COc1ccc2c(c1)C1=NN(/C(C)=C/C(C)=O)C(c3cccc(F)c3)C1CC2 (stereo not given) | inconclusive [inhibitor, full curve] | – |
